Test results: a collection of fitness landscapes (doi:10.1126/science.1257360)
The list shows a part of the results.

B1: PhoQ; a variant is named by its letters at X, in order, P23837 (parent)
chain: MKKLLRLFFPLSLRVRFLLATAAVVLVLSLAYGMVALIGYSVSFDKTTFRLLRGESNLFYTLAKWENNKLHVELPENIDKQSPTMTLIYDENGQLLWAQRDVPWLMKMIQPDWLKSNGFHEIEADVNDTSLLLSGDHSIQQQLQEVREDDDDAEMTHSVAVNVYPATSRMPKLTIVVVDTIPVELKSSYMVWSWFIYVLSANLLLVIPLLWVAAWWSLRPIEALAKEVRELEEHNRELLNPATTRELTSLVRNLNRLLKSERERYDKYRTTLTDLTHSLKTPLXXLQXXLRSLRSEKMSVSDAEPVMLEQISRISQQIGYYLHRASMRGGTLLSRELHPVAPLLDNLTSALNKVYQRKGVNISLDISPEISFVGEQNDFVEVMGNVLDNACKYCLEFVEISARQTDEHLYIVVEDDGPGIPLSKREVIFDRGQRVDTLRPGQGVGLAVAREITEQYEGKIVAGESMLGGARMEVIFGRQHSAPKDE

Variants of: B1
Assay: enrichment ratio after two sorts for PhoP signalling (ratio (wild type AVST 3.29)); higher = more functional
Settings: with PhoP (E. coli)

HIHH and VLGI cannot be ordered by enrichment ratio: at most 0.25 for the first, at most 0.25 for the second.

Going from SEIN to QHGN, the enrichment ratio falls from 8.3 to at most 0.25.

NWKT and EQML cannot be ordered by enrichment ratio: at most 0.25 for the first, at most 0.25 for the second.

Compared with DCSC, SCNY is higher in enrichment ratio: at most 0.25 for the first, 5.7 for the second.

HCGM and SKFQ cannot be ordered by enrichment ratio: at most 0.25 for the first, at most 0.25 for the second.

GGKL and PMNN cannot be ordered by enrichment ratio: at most 0.25 for the first, at most 0.25 for the second.

FGEG and VRSQ cannot be ordered by enrichment ratio: at most 0.25 for the first, at most 0.25 for the second.

AHPK and MLGR cannot be ordered by enrichment ratio: at most 0.25 for the first, at most 0.25 for the second.

HRVD and KQST cannot be ordered by enrichment ratio: at most 0.25 for the first, at most 0.25 for the second.

FNHN and YIPD cannot be ordered by enrichment ratio: at most 0.25 for the first, at most 0.25 for the second.

Going from EGGK to AGGV, the enrichment ratio rises from at most 0.25 to 11.4.

Going from DIYR to MSGL, the enrichment ratio rises from at most 0.25 to 6.17.

ENFK and RVVD cannot be ordered by enrichment ratio: at most 0.25 for the first, at most 0.25 for the second.

MKMV and TWCQ cannot be ordered by enrichment ratio: at most 0.25 for the first, at most 0.25 for the second.

First: TECK
Second: FTPE
The enrichment ratio of the first is higher: 4.11 for the first, at most 0.25 for the second.

YLNT and PWFQ cannot be ordered by enrichment ratio: at most 0.25 for the first, at most 0.25 for the second.

Going from AMWP to WIAW, the enrichment ratio falls from 4.37 to at most 0.25.

SKDF and FSFD cannot be ordered by enrichment ratio: at most 0.25 for the first, at most 0.25 for the second.

NCDG and SGTW cannot be ordered by enrichment ratio: at most 0.25 for the first, at most 0.25 for the second.

LEQG and DSYC cannot be ordered by enrichment ratio: at most 0.25 for the first, at most 0.25 for the second.

Going from LGYV to LAWS, the enrichment ratio falls from 3.76 to at most 0.25.

RICG and GHAD cannot be ordered by enrichment ratio: at most 0.25 for the first, at most 0.25 for the second.

NPIW and ATQI cannot be ordered by enrichment ratio: at most 0.25 for the first, at most 0.25 for the second.

YYPY and VVHR cannot be ordered by enrichment ratio: at most 0.25 for the first, at most 0.25 for the second.

Going from VQHI to HSGI, the enrichment ratio falls from 0.713 to at most 0.25.

RYEF and FGFI cannot be ordered by enrichment ratio: at most 0.25 for the first, at most 0.25 for the second.

TFMI and HMDI cannot be ordered by enrichment ratio: at most 0.25 for the first, at most 0.25 for the second.

WYKD and ARFV cannot be ordered by enrichment ratio: at most 0.25 for the first, at most 0.25 for the second.

PRFL and PGVF cannot be ordered by enrichment ratio: at most 0.25 for the first, at most 0.25 for the second.

WNCF and DDVK cannot be ordered by enrichment ratio: at most 0.25 for the first, at most 0.25 for the second.

HMEG and DEWP cannot be ordered by enrichment ratio: at most 0.25 for the first, at most 0.25 for the second.

QHVH and DFYE cannot be ordered by enrichment ratio: at most 0.25 for the first, at most 0.25 for the second.

FEEI and IIFL cannot be ordered by enrichment ratio: at most 0.25 for the first, at most 0.25 for the second.

Going from ATCL to MAKH, the enrichment ratio falls from 18.6 to at most 0.25.

RRGD and GNHY cannot be ordered by enrichment ratio: at most 0.25 for the first, at most 0.25 for the second.

VLPY and INYT cannot be ordered by enrichment ratio: at most 0.25 for the first, at most 0.25 for the second.

RIAM and KVTV cannot be ordered by enrichment ratio: at most 0.25 for the first, at most 0.25 for the second.

WMYG and MNNR cannot be ordered by enrichment ratio: at most 0.25 for the first, at most 0.25 for the second.

YRPW and QFCD cannot be ordered by enrichment ratio: at most 0.25 for the first, at most 0.25 for the second.

WKTN and EVDG cannot be ordered by enrichment ratio: at most 0.25 for the first, at most 0.25 for the second.

NVWL and WDYP cannot be ordered by enrichment ratio: at most 0.25 for the first, at most 0.25 for the second.

First: GESV
Second: YMCV
The enrichment ratio of the first is higher: 1.28 for the first, at most 0.25 for the second.

PFGV and QTYT cannot be ordered by enrichment ratio: at most 0.25 for the first, at most 0.25 for the second.

VAAQ and HAMP cannot be ordered by enrichment ratio: at most 0.25 for the first, at most 0.25 for the second.

AVHT and HLRM cannot be ordered by enrichment ratio: at most 0.25 for the first, at most 0.25 for the second.

First: AKVI
Second: KCEA
The enrichment ratio of the first is higher: 5.34 for the first, at most 0.25 for the second.

PVDM and VNLW cannot be ordered by enrichment ratio: at most 0.25 for the first, at most 0.25 for the second.

LYVL and TEDK cannot be ordered by enrichment ratio: at most 0.25 for the first, at most 0.25 for the second.

KELN and QRAL cannot be ordered by enrichment ratio: at most 0.25 for the first, at most 0.25 for the second.

EEHY and QVYI cannot be ordered by enrichment ratio: at most 0.25 for the first, at most 0.25 for the second.

AKGR and GVRW cannot be ordered by enrichment ratio: at most 0.25 for the first, at most 0.25 for the second.

CSFR and HVWP cannot be ordered by enrichment ratio: at most 0.25 for the first, at most 0.25 for the second.

First: QTRV
Second: SKMQ
The enrichment ratio of the first is lower: at most 0.25 for the first, 13.1 for the second.

LEQK and PIHF cannot be ordered by enrichment ratio: at most 0.25 for the first, at most 0.25 for the second.

First: KSAQ
Second: GHTN
The enrichment ratio of the first is lower: at most 0.25 for the first, 12.9 for the second.

WKPA and PQFK cannot be ordered by enrichment ratio: at most 0.25 for the first, at most 0.25 for the second.

QIQP and QDRS cannot be ordered by enrichment ratio: at most 0.25 for the first, at most 0.25 for the second.

Going from YDWY to DSFD, the enrichment ratio rises from at most 0.25 to 0.472.

Going from ANTI to GTSL, the enrichment ratio falls from 11.4 to 9.63.

YDRT and MMIK cannot be ordered by enrichment ratio: at most 0.25 for the first, at most 0.25 for the second.

DAQY and HNGC cannot be ordered by enrichment ratio: at most 0.25 for the first, at most 0.25 for the second.

MATH and NFQK cannot be ordered by enrichment ratio: at most 0.25 for the first, at most 0.25 for the second.

DENN and DRHR cannot be ordered by enrichment ratio: at most 0.25 for the first, at most 0.25 for the second.

GPYE and AYFG cannot be ordered by enrichment ratio: at most 0.25 for the first, at most 0.25 for the second.

NWFY and TTIF cannot be ordered by enrichment ratio: at most 0.25 for the first, at most 0.25 for the second.

HPLF and SRTN cannot be ordered by enrichment ratio: at most 0.25 for the first, at most 0.25 for the second.

IKIE and YRKP cannot be ordered by enrichment ratio: at most 0.25 for the first, at most 0.25 for the second.

NCSQ and LDSC cannot be ordered by enrichment ratio: at most 0.25 for the first, at most 0.25 for the second.

Going from ATVF to EPHG, the enrichment ratio falls from 16.1 to at most 0.25.

HYFA and EPGP cannot be ordered by enrichment ratio: at most 0.25 for the first, at most 0.25 for the second.

RVAE and HTHT cannot be ordered by enrichment ratio: at most 0.25 for the first, at most 0.25 for the second.

Compared with SWME, SMSF is higher in enrichment ratio: at most 0.25 for the first, 5.95 for the second.

HYFL and MMLY cannot be ordered by enrichment ratio: at most 0.25 for the first, at most 0.25 for the second.

PEEL and LCQA cannot be ordered by enrichment ratio: at most 0.25 for the first, at most 0.25 for the second.

HIRG and LAKV cannot be ordered by enrichment ratio: at most 0.25 for the first, at most 0.25 for the second.

Compared with VVLV, IPVA is lower in enrichment ratio: 0.977 for the first, at most 0.25 for the second.

VVIK and HSRM cannot be ordered by enrichment ratio: at most 0.25 for the first, at most 0.25 for the second.

RTEQ and PLPT cannot be ordered by enrichment ratio: at most 0.25 for the first, at most 0.25 for the second.

GVVY and QPMY cannot be ordered by enrichment ratio: at most 0.25 for the first, at most 0.25 for the second.

VIAD and KYHC cannot be ordered by enrichment ratio: at most 0.25 for the first, at most 0.25 for the second.

First: QPPN
Second: GTLG
The enrichment ratio of the first is lower: at most 0.25 for the first, 6.02 for the second.

PMRQ and HIYT cannot be ordered by enrichment ratio: at most 0.25 for the first, at most 0.25 for the second.

HGNH and KHGV cannot be ordered by enrichment ratio: at most 0.25 for the first, at most 0.25 for the second.

TRID and PNQE cannot be ordered by enrichment ratio: at most 0.25 for the first, at most 0.25 for the second.

RYAA and VTAR cannot be ordered by enrichment ratio: at most 0.25 for the first, at most 0.25 for the second.

YWQK and LPVP cannot be ordered by enrichment ratio: at most 0.25 for the first, at most 0.25 for the second.

TPIT and AGYQ cannot be ordered by enrichment ratio: at most 0.25 for the first, at most 0.25 for the second.

Going from RRYH to WEEY, the enrichment ratio falls from 0.448 to at most 0.25.

LVAV and IGPE cannot be ordered by enrichment ratio: at most 0.25 for the first, at most 0.25 for the second.

SMKD and FDVP cannot be ordered by enrichment ratio: at most 0.25 for the first, at most 0.25 for the second.

DISA and DNVA cannot be ordered by enrichment ratio: at most 0.25 for the first, at most 0.25 for the second.

KCPG and HQTP cannot be ordered by enrichment ratio: at most 0.25 for the first, at most 0.25 for the second.

PRCF and MKTT cannot be ordered by enrichment ratio: at most 0.25 for the first, at most 0.25 for the second.

DLQY and VSLK cannot be ordered by enrichment ratio: at most 0.25 for the first, at most 0.25 for the second.

IIYG and SFCR cannot be ordered by enrichment ratio: at most 0.25 for the first, at most 0.25 for the second.

QMQM and GLTW cannot be ordered by enrichment ratio: at most 0.25 for the first, at most 0.25 for the second.

YEVY and KSIP cannot be ordered by enrichment ratio: at most 0.25 for the first, at most 0.25 for the second.

With KLCA the enrichment ratio was at most 0.25.
